# Source: the supplement of paper PMC7826260
# The other results are listed elsewhere or left out. One pool of 16,384 single-stranded DNAs met each Rep nickase domain in vitro (3 µM enzyme, 1 h, 37 °C); shown is the middle of each 90-letter strand. Numbers give uncut DNA relative to the enzyme-free pool, as log2; strong cutting gives strongly negative numbers. There is no active / inactive call. Shares of all reads are compared; uncut strands gain when others are lost, and binding without cutting may add a little.
# Test system: T1, Rep nickase domain of tomato golden mosaic virus
# T1 sequence (residues 1-124, tag not shown): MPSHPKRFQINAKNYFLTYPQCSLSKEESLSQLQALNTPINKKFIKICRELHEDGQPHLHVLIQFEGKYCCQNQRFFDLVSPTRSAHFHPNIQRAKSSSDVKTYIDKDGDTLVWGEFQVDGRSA
# Experiment: uncleaved DNA left, log2 of reads against the no-enzyme library (log2 ratio); higher = less cleavage (more negative = more Rep cleavage of the k-mer); sequences stand for … in CTCGTCCG…ACCGGAGA
# Protocol: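 A pool of 90-nt single-stranded DNAs with seven random bases just before the constant AC of the nick site (name = the seven bases) was cut by 3 µM recombinant His6-SUMO-tagged Rep nickase domain (300 nM DNA, 50 mM HEPES pH 8.0, 50 mM NaCl, 1 mM MnCl2, 1 h, 37 °C, three replicates). Uncut DNA was amplified and sequenced.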
row,Sequence,uncleaved DNA left (log2)
1,TGTTAGT,-0.0968
2,GTTGTCC,-0.0359
3,TTCGTCG,-0.102
4,CTACCGA,-0.0584
5,TTGTGAC,-0.0214
6,CTGGGGT,0.0258
7,TCCCGTG,0.0614
8,TAAGAAT,-0.0365
9,GTCGCTT,-0.086
10,GACGTTG,0.0155
11,AATAGCA,-0.0683
12,ACAGCCG,-0.0344
13,CTTCGTA,-0.0206
14,TACGCTA,-0.0558
15,TCTCCCT,-0.0254
16,TCTCGAG,-0.159
17,TTCGCTA,0.0456
18,AGTTGAG,0.0272
19,GCATACC,-0.014
20,GCATTGC,-0.0452

row,Sequence,uncleaved DNA left (log2)
1,ACTCATG,-0.000276
2,AGGCCTT,-0.0262
3,TAAACGC,0.0228
4,GAATTGG,-0.0439
5,ACGTAAG,0.0978
6,CGTCCCA,-0.0229
7,GTGTACC,-0.0259
8,GTATTGT,0.0634
9,CAGAGTT,0.143
10,CATATTG,-0.0391
11,TATGACG,-0.2
12,AACATAG,0.141
13,ATGGCCG,-0.109
14,GAGCGAA,0.0615
15,AGTCGTT,0.0314
16,TTCTCTG,-0.061
17,CAGAAGA,0.0844
18,TCTCTTG,-0.011
19,GGCGAGA,0.0966
20,AGGCAGT,0.127
